According to PMC4931317, “UtpA and UtpB chaperone nascent pre-ribosomal RNA and U3 snoRNA to initiate eukaryotic ribosome assembly” (Nature Communications, 2016):
Results are given in words; binding and its absence hold for the method and conditions named. For part of these data: Binding seen in cells or lysates may run through a third protein. Some entries that bind do so weakly or less than the wild type. For part of these data: Tags and fused reporters may be left off the sequences shown.

What was measured:
[1] = biological target: T1, His14-3C-Utp21 (recombinant) (S. cerevisiae) (UniProt Q06078); assay: pull-down; Utp6/Utp18/Utp21/Utp1 co-expressed in E. coli; tandem affinity purification via His14-3C-Utp21 and mCherry-3C-Utp6; 3C protease elution; SDS-PAGE
T1 sequence: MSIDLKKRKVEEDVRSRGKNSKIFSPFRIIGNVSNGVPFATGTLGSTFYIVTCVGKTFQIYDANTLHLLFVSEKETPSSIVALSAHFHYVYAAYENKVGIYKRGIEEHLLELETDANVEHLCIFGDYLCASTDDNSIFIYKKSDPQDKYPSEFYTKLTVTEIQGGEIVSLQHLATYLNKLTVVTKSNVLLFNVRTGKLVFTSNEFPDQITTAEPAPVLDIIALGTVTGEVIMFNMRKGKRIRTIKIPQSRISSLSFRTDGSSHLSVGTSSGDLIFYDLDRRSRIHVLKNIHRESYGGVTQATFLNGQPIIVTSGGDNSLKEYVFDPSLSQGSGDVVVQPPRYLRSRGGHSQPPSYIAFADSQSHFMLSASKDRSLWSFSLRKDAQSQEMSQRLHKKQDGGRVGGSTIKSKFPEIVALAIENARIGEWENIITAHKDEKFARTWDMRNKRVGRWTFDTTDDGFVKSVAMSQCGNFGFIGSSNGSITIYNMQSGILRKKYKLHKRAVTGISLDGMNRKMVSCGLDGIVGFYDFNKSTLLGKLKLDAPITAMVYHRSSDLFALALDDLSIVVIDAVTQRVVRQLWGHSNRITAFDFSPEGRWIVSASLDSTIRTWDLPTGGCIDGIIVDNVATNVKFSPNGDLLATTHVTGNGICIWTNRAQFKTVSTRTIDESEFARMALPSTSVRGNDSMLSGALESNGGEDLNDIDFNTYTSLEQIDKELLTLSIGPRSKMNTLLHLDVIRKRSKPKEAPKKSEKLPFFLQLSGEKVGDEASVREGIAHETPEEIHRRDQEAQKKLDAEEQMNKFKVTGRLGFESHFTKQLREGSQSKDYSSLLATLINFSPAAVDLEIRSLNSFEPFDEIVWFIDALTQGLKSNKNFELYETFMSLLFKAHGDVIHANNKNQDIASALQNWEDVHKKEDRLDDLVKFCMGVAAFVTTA

[2] = biological target: T2, mCherry-3C-Utp6 (recombinant) (S. cerevisiae) (UniProt Q02354); assay: as above
T2 sequence: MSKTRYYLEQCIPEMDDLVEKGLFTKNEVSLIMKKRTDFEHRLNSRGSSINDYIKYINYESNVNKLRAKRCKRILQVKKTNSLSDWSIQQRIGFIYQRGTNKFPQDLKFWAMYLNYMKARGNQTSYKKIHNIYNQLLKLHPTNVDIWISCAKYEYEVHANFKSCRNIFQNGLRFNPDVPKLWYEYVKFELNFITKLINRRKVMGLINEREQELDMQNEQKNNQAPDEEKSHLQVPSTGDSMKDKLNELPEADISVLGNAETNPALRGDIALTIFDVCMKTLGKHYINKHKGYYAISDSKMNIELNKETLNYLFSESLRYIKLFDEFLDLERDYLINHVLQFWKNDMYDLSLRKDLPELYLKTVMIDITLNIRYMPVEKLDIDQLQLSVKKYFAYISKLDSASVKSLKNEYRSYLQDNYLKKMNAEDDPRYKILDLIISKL

[3] = biological target: T3, His-tagged Utp6 (recombinant) (S. cerevisiae) (UniProt Q02354); assay: pull-down; His-tagged Utp6, alone or co-expressed with Utp18, as bait on Nickel Sepharose; proteins 1 μM, on ice, 50 mM Hepes-NaOH pH 7.7, 300 mM NaCl, 70 mM imidazole; eluted with 3C protease; Coomassie-stained SDS-PAGE; both purified
T3 sequence: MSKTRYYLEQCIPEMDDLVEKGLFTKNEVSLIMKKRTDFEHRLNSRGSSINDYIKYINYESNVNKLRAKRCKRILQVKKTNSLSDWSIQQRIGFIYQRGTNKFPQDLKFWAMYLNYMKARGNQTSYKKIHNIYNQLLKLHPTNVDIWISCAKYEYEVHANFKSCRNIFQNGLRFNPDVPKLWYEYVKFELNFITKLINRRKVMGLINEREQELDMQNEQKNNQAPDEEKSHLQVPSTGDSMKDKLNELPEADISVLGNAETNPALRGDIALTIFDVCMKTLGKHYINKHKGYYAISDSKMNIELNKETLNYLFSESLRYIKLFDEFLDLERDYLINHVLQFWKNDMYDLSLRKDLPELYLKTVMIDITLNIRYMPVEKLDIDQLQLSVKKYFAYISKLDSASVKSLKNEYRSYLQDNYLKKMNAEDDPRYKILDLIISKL

[4] = biological target: T4, His14-3C-Utp12 (recombinant) (S. cerevisiae) (UniProt Q12220); assay: SEC; Utp12/Utp13/StrepII-Sumo-Utp21/Utp1 co-expressed in E. coli and purified by the His14 tag on Utp12; main peak fraction of the size-exclusion run; 50 mM HEPES-NaOH pH 7.6, 300 mM NaCl; both purified
T4 sequence: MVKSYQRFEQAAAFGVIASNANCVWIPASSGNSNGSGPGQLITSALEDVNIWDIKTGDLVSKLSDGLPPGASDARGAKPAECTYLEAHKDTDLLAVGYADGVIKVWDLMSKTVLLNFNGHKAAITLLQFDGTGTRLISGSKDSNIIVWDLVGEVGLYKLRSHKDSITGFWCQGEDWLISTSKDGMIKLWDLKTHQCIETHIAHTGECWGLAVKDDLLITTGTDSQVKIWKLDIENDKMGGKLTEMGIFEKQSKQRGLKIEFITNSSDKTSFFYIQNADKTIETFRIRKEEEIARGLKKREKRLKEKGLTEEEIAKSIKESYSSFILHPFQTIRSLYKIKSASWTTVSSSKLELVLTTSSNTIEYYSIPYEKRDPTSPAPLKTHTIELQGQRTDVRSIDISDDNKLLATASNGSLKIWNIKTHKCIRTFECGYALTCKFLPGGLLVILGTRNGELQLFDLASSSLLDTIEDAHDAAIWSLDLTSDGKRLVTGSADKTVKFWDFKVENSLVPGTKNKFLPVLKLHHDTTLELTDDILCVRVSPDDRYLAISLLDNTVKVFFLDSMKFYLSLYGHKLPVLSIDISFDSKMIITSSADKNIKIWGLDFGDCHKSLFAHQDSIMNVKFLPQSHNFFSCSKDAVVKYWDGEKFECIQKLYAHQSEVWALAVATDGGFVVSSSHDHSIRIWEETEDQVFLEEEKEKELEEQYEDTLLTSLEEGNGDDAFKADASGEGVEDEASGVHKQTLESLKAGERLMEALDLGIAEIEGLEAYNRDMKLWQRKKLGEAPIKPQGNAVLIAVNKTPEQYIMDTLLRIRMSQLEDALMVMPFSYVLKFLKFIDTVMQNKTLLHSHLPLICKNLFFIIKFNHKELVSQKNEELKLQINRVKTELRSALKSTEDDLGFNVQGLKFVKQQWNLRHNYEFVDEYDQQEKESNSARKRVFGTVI

[5] = biological target: T5, StrepII-Sumo-Utp21 (recombinant) (S. cerevisiae) (UniProt Q06078); assay: cross-linking; DSS (0.2, 0.4 and 0.8 mM, H12/D12) cross-linking of SEC-purified recombinant UtpBΔUtp6ΔUtp18, 0.2 mg/ml, room temperature, 30 min, 50 mM HEPES-NaOH pH 7.7, 300 mM NaCl, 1 mM EDTA; cross-linked peptides found by mass spectrometry (pLink); both purified
T5 sequence: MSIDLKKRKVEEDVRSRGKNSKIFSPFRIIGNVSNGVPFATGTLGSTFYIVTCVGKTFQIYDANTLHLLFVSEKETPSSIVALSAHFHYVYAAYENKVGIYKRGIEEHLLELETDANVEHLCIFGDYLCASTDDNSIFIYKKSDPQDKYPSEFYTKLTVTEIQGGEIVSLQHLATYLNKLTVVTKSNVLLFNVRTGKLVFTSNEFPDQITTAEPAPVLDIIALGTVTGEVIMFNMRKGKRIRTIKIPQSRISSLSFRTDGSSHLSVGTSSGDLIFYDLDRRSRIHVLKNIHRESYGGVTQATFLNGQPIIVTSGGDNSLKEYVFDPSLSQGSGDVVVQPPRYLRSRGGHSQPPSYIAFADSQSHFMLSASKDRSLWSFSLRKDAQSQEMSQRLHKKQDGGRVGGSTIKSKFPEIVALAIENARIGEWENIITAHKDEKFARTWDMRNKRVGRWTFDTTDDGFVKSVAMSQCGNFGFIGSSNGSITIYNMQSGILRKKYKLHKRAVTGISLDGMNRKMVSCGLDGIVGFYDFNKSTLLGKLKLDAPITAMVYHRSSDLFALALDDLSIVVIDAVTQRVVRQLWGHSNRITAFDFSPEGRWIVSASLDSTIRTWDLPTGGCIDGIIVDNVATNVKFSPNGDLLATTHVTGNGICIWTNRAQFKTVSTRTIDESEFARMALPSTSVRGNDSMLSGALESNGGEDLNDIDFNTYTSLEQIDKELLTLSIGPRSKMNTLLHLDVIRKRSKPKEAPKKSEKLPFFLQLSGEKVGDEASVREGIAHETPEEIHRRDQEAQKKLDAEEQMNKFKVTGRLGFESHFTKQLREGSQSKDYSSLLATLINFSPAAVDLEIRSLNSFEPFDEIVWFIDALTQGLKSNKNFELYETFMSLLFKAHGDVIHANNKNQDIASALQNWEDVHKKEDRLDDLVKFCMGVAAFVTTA

Measured: binding

B1: Utp18 (recombinant) (protein, UniProt P40362 1-594)
chain: MTMATTAMNVSVPPPDEEEQLLAKFVFGDTTDLQENLAKFNADFIFNEQEMDVEDQEDEGSESDNSEEDEAQNGELDHVNNDQLFFVDDGGNEDSQDKNEDTMDVDDEDDSSSDDYSEDSEEAAWIDSDDEKIKVPILVTNKTKKLRTSYNESKINGVHYINRLRSQFEKIYPRPKWVDDESDSELDDEEDDEEEGSNNVINGDINALTKILSTTYNYKDTLSNSKLLPPKKLDIVRLKDANASHPSHSAIQSLSFHPSKPLLLTGGYDKTLRIYHIDGKTNHLVTSLHLVGSPIQTCTFYTSLSNQNQQNIFTAGRRRYMHSWDLSLENLTHSQTAKIEKFSRLYGHESTQRSFENFKVAHLQNSQTNSVHGIVLLQGNNGWINILHSTSGLWLMGCKIEGVITDFCIDYQPISRGKFRTILIAVNAYGEVWEFDLNKNGHVIRRWKDQGGVGITKIQVGGGTTTTCPALQISKIKQNRWLAVGSESGFVNLYDRNNAMTSSTPTPVAALDQLTTTISNLQFSPDGQILCMASRAVKDALRLVHLPSCSVFSNWPTSGTPLGKVTSVAFSPSGGLLAVGNEQGKVRLWKLNHY
binds: [1] | [2] | [3]

B2: Utp1 (recombinant) (protein, UniProt P25635 1-923)
chain: MKSDFKFSNLLGTVYRQGNITFSDDGKQLLSPVGNRVSVFDLINNKSFTFEYEHRKNIAAIDLNKQGTLLISIDEDGRAILVNFKARNVLHHFNFKEKCSAVKFSPDGRLFALASGRFLQIWKTPDVNKDRQFAPFVRHRVHAGHFQDITSLTWSQDSRFILTTSKDLSAKIWSVDSEEKNLAATTFNGHRDYVMGAFFSHDQEKIYTVSKDGAVFVWEFTKRPSDDDDNESEDDDKQEEVDISKYSWRITKKHFFYANQAKVKCVTFHPATRLLAVGFTSGEFRLYDLPDFTLIQQLSMGQNPVNTVSVNQTGEWLAFGSSKLGQLLVYEWQSESYILKQQGHFDSTNSLAYSPDGSRVVTASEDGKIKVWDITSGFCLATFEEHTSSVTAVQFAKRGQVMFSSSLDGTVRAWDLIRYRNFRTFTGTERIQFNCLAVDPSGEVVCAGSLDNFDIHVWSVQTGQLLDALSGHEGPVSCLSFSQENSVLASASWDKTIRIWSIFGRSQQVEPIEVYSDVLALSMRPDGKEVAVSTLKGQISIFNIEDAKQVGNIDCRKDIISGRFNQDRFTAKNSERSKFFTTIHYSFDGMAIVAGGNNNSICLYDVPNEVLLKRFIVSRNMALNGTLEFLNSKKMTEAGSLDLIDDAGENSDLEDRIDNSLPGSQRGGDLSTRKMRPEVRVTSVQFSPTANAFAAASTEGLLIYSTNDTILFDPFDLDVDVTPHSTVEALREKQFLNALVMAFRLNEEYLINKVYEAIPIKEIPLVASNIPAIYLPRILKFIGDFAIESQHIEFNLIWIKALLSASGGYINEHKYLFSTAMRSIQRFIVRVAKEVVNTTTDNKYTYRFLVSTDGSMEDGAADDDEVLLKDDADEDNEENEENDVVMESDDEEGWIGFNGKDNKLPLSNENDSSDEEENEKELP
binds: [1] | [4] | [5]
